First the molecules themselves.
B1: OR4K15 (parent)
chain: GUUAACGGUCAUAGGCCAUGGAAACUAGGAGCACCAUUUCGCUGCCAGUGAAGAAAUGAACAAAGAAAAUCUGGGCCAGGCAGGCAUCAAAAGAAAUAGUCUUGCGCUCAACCAGAAAGUCUGUAAUCAUUUUAAGGGUA

The record followed here is the RNAGym collection of RNA variant scans (doi:10.7554/elife.90254).

Read counts are not given, so values of variants with three or more changes are uncertain.

Variants of B1 are the subject of this data set. The data set is described as follows: self-cleavage, relative activity (ratio to wild type); higher = more cleavage; in vitro, sequencing; the parent is a self-cleaving ribozyme.
G65U G74A U102C: the self-cleavage was 0.5.
As for A67G A69G U97A U108C, the self-cleavage turned out to be 0.02.
In the case of A68G U102A A117U U130C it was 0; in that of A66G A78G A96G, 0.25.
A64G A111G U124C: the self-cleavage was 0.
As to A63G A78U U102C, the self-cleavage was determined as 1.18.
In the case of A63G A67G A78G, the self-cleavage worked out at 0.23.
For the variant A64G A68G U102G, the self-cleavage is 0.32.
Take A68G A92G A116G: the self-cleavage is 0.87.
In the case of A63G A95G C112U U122C U132C it was 0; in that of A69G C85U A116G, 0.43; in that of A66G U70A A96G, 1.61.
In the case of A68G A94G U102C it was 1.11; in that of A68G A96G A126G, 1.39.
As to A66G A82G A92G, the self-cleavage turned out to be 0.51.
For A67G U102C U132C, the self-cleavage was found to be 2.4.
On to A63G C105G A111G, for which the self-cleavage worked out at 0.03.
On to A64G U97C C105U, for which the self-cleavage was found to be 0.01.
In the case of A68G A91G A114U it was 0.02; in that of A63G A111U U127C, 0.05; in that of A66G U103C A125G, 0.25.
In the case of A64G A126G U127A U130C it was 0.32; in that of A64G A78G A91G A118G, 0.09.
For A64G A69G U139C, the self-cleavage amounted to 0.77.
For A66G A96U U108C, the self-cleavage is 0.02.
Consider A69G A94G U102A A111G, for which the self-cleavage is 0.03.
On to A64G A92C A111G U130C U133A, for which the self-cleavage stood at 0.
With A63G U70A U131C, the self-cleavage came to 1.14.
As to U70A G93A U139C, the self-cleavage worked out at 1.45.
On to A63U A68G U122C, for which the self-cleavage came out at 0.99.
In the case of A67G U100A A110G U133C it was 0.21; in that of A64G U70C G84U, 0.47.
On to A68G A89G U100C, for which the self-cleavage amounted to 2.51.
As to A67G A78U U103A A110G A117G, the self-cleavage worked out at 0.04.
A64G A90G U130C: the self-cleavage worked out at 0.67.
As for A63G A89G A91G U132A, the self-cleavage amounted to 1.25.
As for A67G A96G A98G, the self-cleavage came to 0.96.
In the case of A68U C77A U127A it was 0.92; in that of A68G A69G A92G, 0.84.
For the variant A66G U122A U124C U130C A140G, the self-cleavage amounted to 0.
A63G A94U A117G: the self-cleavage came out at 1.97.
As to A64G C81U A118G, the self-cleavage came out at 0.31.
For A64G A94G U102C A116G, the self-cleavage stood at 1.79.
In the case of A67G A89U A110G, the self-cleavage came out at 0.12.
For the variant A63C A64G A92G U97C, the self-cleavage is 1.44.
A69U A90G U102C U103C: the self-cleavage stood at 0.04.
In the case of A67G A92G A114G it was 0.19; in that of A68U A82G A91G, 0.16; in that of A64G A82G A95G, 1.29.
For A63G A89G U100C, the self-cleavage was 2.17.
With A67G U120C U124A, the self-cleavage was found to be 0.78.
In the case of A69G U102C A126G it was 0.88.
Take A68G A78G A129C: the self-cleavage was determined as 0.18.
Consider A66G A89G U102C A117G, for which the self-cleavage is 2.77.
A63G A114U U130C: the self-cleavage came to 0.03.
For the variant A63U A117G U131C, the self-cleavage was 1.64.
As for U70A A86G U87C, the self-cleavage amounted to 0.9.
A66U A69U A89G: the self-cleavage was found to be 1.14.
Regarding A63G A89G A116G, the self-cleavage was determined as 0.44.
With A63G A68U U70C U108C U130C, the self-cleavage was determined as 0.01.
As for A67U U102A A111U U132C, the self-cleavage came to 0.06.
With A68G U100C U127C, the self-cleavage stood at 1.14.
With A68G U102C U122C, the self-cleavage was 1.72.
For the variant A67C A117G U120C, the self-cleavage is 0.44.
In the case of G65A A110U U133C A135G it was 1.12; in that of A64C A86C A89G, 0.34.
G65A U87C A111U A117G: the self-cleavage is 0.06.
In the case of A67G A82G A118U, the self-cleavage is 0.08.
In the case of A68U A78C A114G U122A, the self-cleavage came to 0.06.
In the case of A69G A86U A89G, the self-cleavage came out at 1.19.
Consider A68G A96C U124A, for which the self-cleavage is 0.37.
As for A68U A69G U122C, the self-cleavage was 0.73.
As to A69G A95G U102C A111U, the self-cleavage came to 0.1.
Take A69G U87C A94G U139C: the self-cleavage is 1.52.
In the case of U70A A91U U97C U127C it was 0.59; in that of A66G A110G A126U, 0.12; in that of A66G A69G C85U, 1.42.
In the case of A63G A110G A111G G136U, the self-cleavage is 0.02.
As to A68G A90G U100A, the self-cleavage was 0.32.
In the case of A67G G106U A111G, the self-cleavage came out at 0.03.
In the case of A67G A68G A118G it was 0.59; in that of A64G U102C A111U A114C U127C, 0.01; in that of A63G A78U U131C, 0.22.
For A66G G84C A114U, the self-cleavage was 0.02.
A66G C109A A118G U120C: the self-cleavage stood at 0.12.
Regarding A68G U72A U120C, the self-cleavage is 0.11.
In the case of A67G U100C G106A it was 0.01; in that of A67G C107G U131C, 0.03.
For the variant A63G A92G A111U, the self-cleavage came to 0.13.
Consider A69G U72A A114G A125G, for which the self-cleavage worked out at 0.05.
For A69G A78G U103C, the self-cleavage is 0.04.
With A64G A67G A78U U120C, the self-cleavage came out at 0.27.
With A64G U72A U122G, the self-cleavage was 0.61.
A63G A86U U130C: the self-cleavage was 1.76.
On to A69G A98G G104A U132C, for which the self-cleavage is 0.01.
Regarding A69G A118G U130G, the self-cleavage was determined as 0.22.
For the variant A62U A96G U139A, the self-cleavage was determined as 1.62.
A68G A91G U132A: the self-cleavage is 0.97.
For A64G U70C U108C A116G, the self-cleavage was 0.02.
With A69G A117C U127A, the self-cleavage came out at 1.69.
A64G A96G A129G: the self-cleavage stood at 1.33.
In the case of A67G A91U U132C, the self-cleavage is 1.48.
Consider A67G U102C U124A, for which the self-cleavage stood at 1.08.
Take A64G G79A A86G A117G G138C: the self-cleavage was determined as 0.08.
For the variant A67G A96G U103A, the self-cleavage is 0.34.
As for A66G U103C A110G, the self-cleavage was 0.14.
In the case of A64G U72A C121G U130C it was 0.22; in that of A64G G73A U97C A135G, 0.04; in that of A66G A82G U100C U102C, 2.56.
For A67G A92U U103C, the self-cleavage was 1.24.
In the case of A67U A78G A89G, the self-cleavage came out at 0.21.
In the case of A66G A67G A114G, the self-cleavage came to 0.35.
As for A68G A90C U132C, the self-cleavage was determined as 0.81.
Consider A66G A118G U127C, for which the self-cleavage is 0.49.
For the variant A63G A129G A134G, the self-cleavage was 1.35.
In the case of A66G A67G A78U it was 0.54.
For A63G U72A U130C U133C, the self-cleavage was 0.2.
In the case of A67G A95G U102C U131C it was 2.84.
In the case of A64U A89G A111G it was 0.02.
For the variant A63G A86U A118G A134G A140G, the self-cleavage is 1.28.
In the case of A67G A69G A95G A110U A126G it was 1.06; in that of A62U A92G U120C U130C, 0.44.
As for A68G C105U A116G, the self-cleavage was determined as 0.05.
As to A67G A78U A82U U87C, the self-cleavage was 0.11.
In the case of A67G A118G U122C U127C, the self-cleavage amounted to 0.15.
Take A64G A66G A116G: the self-cleavage amounted to 0.55.
For the variant A64G A94G A117G, the self-cleavage amounted to 0.64.
As for A69U A96G U100C, the self-cleavage came to 2.4.
In the case of A66G A95G A96G it was 0.58.
In the case of A63G A82G A96G it was 0.99; in that of A63C U87C C105U, 0.3.
In the case of A69G G83A C107U U124C it was 0.01.
A64G A69G A94G A96G U108C A114U: the self-cleavage turned out to be 0.01.
For U70C A78G C113U, the self-cleavage came out at 0.01.
In the case of A63G A95U A117G A118G it was 2.04; in that of A68G U70C A114G, 0.1; in that of A64G A69G U100C U127C, 1.06.
In the case of A69G G123U U139C it was 2.14; in that of A68G U72C U127A, 0.5.
In the case of A68G A89U U100C it was 2.29; in that of A66G A69G A91G U132C, 1.19.
As for A66G A78U A111U, the self-cleavage came out at 0.01.
As for A67G A91G C107U U132C, the self-cleavage turned out to be 0.01.
In the case of A66U A82G A92G it was 0.42; in that of A64G U97C A114G, 0.51.
In the case of A67U A96G U103C it was 1.46; in that of U70A A82G U130C, 0.19.
In the case of A68G U127C G136A, the self-cleavage is 0.87.
Take A68G A86G U131C: the self-cleavage worked out at 0.61.
Take A62U U108C U120A: the self-cleavage turned out to be 0.01.
Consider A68G A114U A118G, for which the self-cleavage came to 0.03.
In the case of A68U U72C A78U A95G, the self-cleavage came to 0.12.
Take A68G A91U U102A: the self-cleavage worked out at 0.92.
Regarding A69G G74U A114U, the self-cleavage came out at 0.03.
As to A67G A92U U131C, the self-cleavage came to 1.38.
In the case of A63G G79A A95G, the self-cleavage is 0.05.
Consider A64G G65A A135G, for which the self-cleavage was 0.95.
In the case of G65A A91U U122G it was 2.88; in that of A67G A86G A98C U127C, 1.21.
A64G U70C U87C C105U A110G: the self-cleavage turned out to be 0.01.
In the case of A63G A69U A114C it was 0.09.
In the case of A62U G75A A82G U120A, the self-cleavage was 0.18.
As to A63G A86G U120A U124C, the self-cleavage worked out at 0.86.
Take A68G A111G A140G: the self-cleavage is 0.02.
Take A69G A90G G93A U102G: the self-cleavage turned out to be 0.21.
In the case of A63G A69G U70C A92G A118G U132C it was 0.15.
With A67G A86G A114G, the self-cleavage worked out at 0.26.
